Screen size: about 410,000 compounds; about 6,400 (1.6%) were called active. The shares of active, inactive and inconclusive entries below differ from those in the screen. Calls come from the whole dose curve; as a rule, active = well fitted inhibition curve with a large enough effect; inconclusive = small, poorly fitted or top-dose-only effect; inactive = no such curve, though single readings can be large or run the other way. Potencies of inconclusive entries are left out as doubtful fits.
target: Glucagon-like peptide 1 receptor (Homo sapiens) (UniProt P43220); assay: qHTS of GLP-1 Receptor Inverse Agonists (Inhibition Mode); conditions: HEK293 GLP-1R CRE-luciferase, luminescence, 24 h, GLP-1R form is constitutively active; series mostly up to 38.3 µM; note: nearly all actives have a fitted effect of over 55% in size
UniProt P43220, sequence (P43220 whole entry, looked up): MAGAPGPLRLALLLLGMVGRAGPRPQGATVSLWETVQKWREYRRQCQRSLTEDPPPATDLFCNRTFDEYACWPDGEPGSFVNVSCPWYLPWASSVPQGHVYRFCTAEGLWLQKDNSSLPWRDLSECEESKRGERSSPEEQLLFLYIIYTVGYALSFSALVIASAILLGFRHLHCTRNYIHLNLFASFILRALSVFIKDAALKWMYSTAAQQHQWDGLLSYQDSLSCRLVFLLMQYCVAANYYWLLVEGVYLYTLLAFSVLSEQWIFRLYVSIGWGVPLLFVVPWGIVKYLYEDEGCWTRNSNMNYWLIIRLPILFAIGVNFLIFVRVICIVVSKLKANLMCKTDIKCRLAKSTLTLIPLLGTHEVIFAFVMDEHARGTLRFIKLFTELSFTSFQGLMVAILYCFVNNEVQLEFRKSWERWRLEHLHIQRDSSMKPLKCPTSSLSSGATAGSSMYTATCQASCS
Procedure, shortened: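 HEK293 cells stably co-expressing constitutively active GLP-1R and a cAMP-responsive luciferase reporter were seeded in DMEM with 10% Nu serum, given compounds after 12 h, and incubated 24 h at 37 deg C. Luminescence was then read.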
Potency is the fitted concentration of half-maximal effect; tags give direction and shape of the fitted curve.

SMILES	Potency
CC(=O)Nc1nc2ccccc2n1Cc1ccccc1C	inconclusive [inhibitor, partial curve, poor fit]
COc1ccccc1N1CCN(/N=C/c2cccc(Cl)c2)CC1	inconclusive [inhibitor, single point]
CS/C(=N\S(=O)(=O)c1cccs1)Nc1ccc(Cl)cc1	inconclusive [inhibitor, single point]
O=C(Nc1ccccc1N1CCCC1)c1ccc(Cl)cc1Cl	inconclusive [inhibitor, partial curve, poor fit]
COc1ccc(NC(=O)C2CCN(Cc3cnn(-c4ccccc4)c3-n3cccc3)CC2)cc1OC	inconclusive [inhibitor, single point]
Cc1nc2cc(C(F)(F)F)ccc2n1CCNc1nc(-c2ccc([N+](=O)[O-])c(Cl)c2)cs1	inconclusive [inhibitor, single point]
COc1ccc(-c2nc(-c3ccc(O)cc3O)cs2)cc1OC	inactive
Cc1ccc(S(=O)(=O)N(C)CC(=O)NCC(=O)Nc2ccc(F)c(F)c2F)cc1	inconclusive [inhibitor, partial curve, poor fit]
Cc1cccc(/C=N/NC(=O)NC23CC4CC(CC(C4)C2)C3)n1	inconclusive [inhibitor, single point]
Cc1ccc(Cl)cc1NC(=O)CCC(=O)N1CC(C)Sc2ccccc21 (stereo not drawn)	inconclusive [inhibitor, single point]
CC1(Oc2cccc(F)c2)CCN(Cc2ccc(-c3ccccc3)o2)C1 (stereo not drawn)	inconclusive [inhibitor, single point]
Cc1ccc2[nH]c(-c3cccc(N)c3)cc2c1	inconclusive [inhibitor, single point]
CCC1CN(C(=O)N2CCC(C(=O)N3CCN(c4cccc(C)c4C)CC3)CC2)c2ccccc2O1 (stereo not drawn)	inconclusive [inhibitor, partial curve, poor fit]
Cc1nc2sc(C(c3ccco3)N3CCC(Cc4ccccc4)CC3)c(O)n2n1 (stereo not drawn)	inconclusive [inhibitor, single point]
Cc1nn2c(N3CCN(C4CCCC4)CC3)cc(C(C)(C)C)nc2c1-c1ccccc1	inactive
OCCN1CCN(c2nc(-c3ccccc3O)nc3ccccc23)CC1	inconclusive [inhibitor, partial curve, poor fit]
CC(C)(C)NC(=O)NC(=O)COC(=O)Cc1coc2ccc3ccccc3c12	inconclusive [inhibitor, single point]
CC12COC3(P(=O)(c4ccccc4)c4ccccc4)CC1CCC23CP(=O)(c1ccccc1)c1ccccc1 (stereo not drawn)	inconclusive [inhibitor, single point]
COc1cc(OC)c(NC(=O)C2=C(C)C(=O)OC23CCCCCC3)cc1Cl	inactive

SMILES	Potency
COc1ccc(C2C=C(c3cccc(OC)c3)Nc3c(C(=O)Nc4ccccc4)cnn32)cc1 (stereo not drawn)	inconclusive [inhibitor, single point]
CC(=O)Nc1cc2c(cc1NC(=O)Cn1nc(-c3ccc4c(c3)OCCO4)ccc1=O)OCCO2	inactive
COc1ccc(C(=O)N/N=C(\C)CC(=O)Nc2ccc(N(C)C)cc2)c(OC)c1	inactive
OC[C@@H]1CN(Cc2ccc(-c3ccccc3)cc2)C[C@H](n2cnc3c(NCc4ccc(F)cc4)ncnc32)O1	inconclusive [inhibitor, partial curve, poor fit]
C[C@@H]1O[C@@H](O[C@@H]2[C@@H](O)[C@H](OCCc3ccc(O)c(O)c3)O[C@H](CO)[C@H]2OC(=O)/C=C/c2ccc(O)c(O)c2)[C@H](O)[C@H](O)[C@H]1O	inactive
CN(Cc1c(F)cccc1Cl)C(=O)c1cccc(S(=O)(=O)N2CCN(Cc3ccccc3)CC2)c1	inconclusive [inhibitor, partial curve]
O=C(CSc1nnc(-c2cccc(Cl)c2)o1)N1CCc2ccccc21	inactive
CC(=O)c1c(N2CCN(Cc3ccccc3)CC2)nc(=S)n(Cc2ccccc2)c1C	inconclusive [inhibitor, partial curve, poor fit]
COc1ccccc1CCC(=O)N(Cc1ccccc1)c1c(N)n(Cc2ccccc2)c(=O)[nH]c1=O	inconclusive [inhibitor, partial curve, poor fit]
COc1cc2cc(C(=O)NC(C)c3cccc4ccccc34)c(N)nc2cc1OC (stereo not drawn)	inconclusive [inhibitor, partial curve, poor fit]
CCc1ccc(C(C)NC(=S)NCc2ccc(F)cc2)cc1 (stereo not drawn)	inconclusive [inhibitor, partial curve, poor fit]
COc1cc(OC)c(C(=O)OCC(=O)NC23CC4CC(CC(C4)C2)C3)cc1OC	inconclusive [inhibitor, full curve, poor fit]
C=CCNC(=O)C1CC2c3ccccc3C1c1ccccc12 (stereo not drawn)	inconclusive [inhibitor, partial curve, poor fit]
COc1ccc(S(=O)(=O)N2CCCCC2)cc1Br	inconclusive [inhibitor, partial curve, poor fit]
CC(C)COc1ccc(C(=O)Nc2scc(-c3ccc(Cl)cc3Cl)c2C(N)=O)cc1	inconclusive [inhibitor, partial curve, poor fit]
COc1ccc(OC)c(C(c2nnnn2C2CCCC2)N2CCc3ccccc3C2)c1 (stereo not drawn)	inconclusive [inhibitor, partial curve, poor fit]
Cc1cccc2sc(NC(=O)CN(C)S(=O)(=O)c3cccs3)nc12	inconclusive [inhibitor, partial curve, poor fit]
CCCc1n[nH]c2c1/C(=N\OCC)CC(C)(C)C2	inconclusive [inhibitor, partial curve, poor fit]
O=C(CCn1cnc2ccccc2c1=O)Nc1nc2c(s1)CCCC2	inconclusive [inhibitor, full curve, poor fit]

Source: PubChem BioAssay AID624417 (National Center for Advancing Translational Sciences (NCATS), 2012)
